# Assay results taken from PubChem BioAssay AID686978 (National Center for Advancing Translational Sciences (NCATS), 2013).
# The whole screen tested about 420,000 compounds, of which about 64,000 (15%) were called active. The shares of active, inactive and inconclusive entries below differ from those in the screen. Calls follow the shape of the dose curve; as a rule, active = well fitted inhibition curve with a large enough effect; inconclusive = small, poorly fitted or top-dose-only effect; inactive = flat fitted curve, though single readings scatter. No potency is given beside an inconclusive call; the fits are too rough.
# Assay: qHTS for Inhibitors of human tyrosyl-DNA phosphodiesterase 1 (TDP1): qHTS in cells in absence of CPT; also: nearly all actives have a fitted effect of over 55% in size
# Conditions: DT40 Tdp1-/- hTDP1 cells, no CPT, ATP luminescence, 48 h; activity change, negative = growth inhibition: at 46.2 µM (top of the series) unless noted
# Method in brief: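 DT40 Tdp1-/-;hTDP1 cells, no CPT (DMSO vehicle only), 400 cells/well; compounds pin-transferred; ≥48 hr, 37 °C; CellTiter-Glo 30 min RT dark, luminescence read.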
# % is scaled to controls: 0 for no effect and ±100 for the full control effect; potency is read from the fitted curve at half-maximal effect; tags tell the direction and shape of the fitted curve.
Structure (SMILES),Potency,"activity change, negative = growth inhibition"
CCC(NC(=O)Nc1cc(C)on1)(C(F)(F)F)C(F)(F)F,inactive,–
Cc1ccc(S(=O)(=O)N2CCN(CC(=O)NCC3(N4CCOCC4)CCCCC3)CC2)cc1,inactive,–
CCOC(=O)c1c(-c2ccccc2)csc1NC(=O)/C(C#N)=C/c1ccc(OC)c(OC)c1,–,inconclusive: -35.6% [inhibitor]
COC(=O)c1ccc(COc2cccc3c2OC(C)(C)C3)cc1,inactive,–
Cc1ccc(-n2c(SCC(=O)OC(C)C)nnc2-c2ccco2)cc1,"inconclusive [inhibitor, single point]",–
Cc1ccn(CC(=O)NC2CCCN(Cc3ccc(CC(C)C)cc3)C2)n1 (stereo not given),"inconclusive [inhibitor, partial curve]",–
Cc1oc(-c2ccc(Cl)cc2)nc1CS(=O)CC(=O)NCc1ccc(Cl)cc1 (stereo not given),"inconclusive [inhibitor, single point]",–
CC1CC(C)CN(S(=O)(=O)N2CCCC(C(=O)NC3CCCCC3C)C2)C1 (stereo not given),inactive,–
O=C(/C=C(/c1ccc(Cl)cc1)n1cncn1)c1ccccc1,"inconclusive [inhibitor, single point]",–
CC1=C(C(=O)OCc2ccccc2)C(c2ccccc2OC(F)F)NC(=O)N1 (stereo not given),"inconclusive [inhibitor, partial curve]",–
CCc1ccc(NC(=O)CSc2nc3n[nH]c(C)c3c(=N)n2-c2ccccc2C)cc1,"inconclusive [inhibitor, partial curve]",–
CC(=O)n1c(-c2ccccc2)c(CO)c2ccccc21,"inconclusive [inhibitor, single point]",–
COc1cccc(C(=O)Nc2ccccc2OCc2cc(=O)n3cc(C)ccc3n2)c1,"inconclusive [inhibitor, single point]",–
COC(CNC(=O)c1ccc(N2CCc3ccccc32)c([N+](=O)[O-])c1)OC,"inconclusive [inhibitor, single point]",–
CN(C)n1cnc2ccsc2c1=O,inactive,–
COc1cc(CN2CCCC(C)C2)cc([N+](=O)[O-])c1O (stereo not given),–,inconclusive: -33.5% [inhibitor]
Cc1ccc(C(=O)NCC(C)NC(=O)c2ccc(C)c([N+](=O)[O-])c2)cc1[N+](=O)[O-] (stereo not given),active: 14.6 µM,–
CCOC(=O)C1=CN(CC)S(=O)(=O)NC1CC (stereo not given),inactive,–
CCCNC(=O)C1CCN(S(=O)(=O)c2ccc3c(c2)CCCN3C(C)=O)CC1,"inconclusive [inhibitor, partial curve, poor fit]",–
COc1ccc(CCNC(=O)CN(c2ccccc2)S(=O)(=O)c2ccccc2)cc1,"inconclusive [inhibitor, partial curve]",–
Fc1cc(Cl)ccc1Nc1nc(NCc2ccccc2)nc2ccsc12,active: 9.2 µM,–
CCCN1C=CC(=C2C(=O)c3ccccc3C2=O)C=C1,active: 5.17 µM,–
O=C(c1ccco1)[C@@H]1[C@@H]2C(=O)N(c3ccc(Br)cc3)C(=O)[C@@H]2C2c3ccccc3C=CN21 (stereo not given in full),"inconclusive [inhibitor, single point]",–
COc1ccc(-c2nc3cnc(N4CCNCC4)nc3n(C3CC3)c2=O)cc1,"inconclusive [inhibitor, single point]",–

Structure (SMILES),Potency,"activity change, negative = growth inhibition"
CCOC(=O)c1c2ccccc2[n+]([O-])n1[C@@H](C)C(N)=O,inactive,–
CCOC(=O)C1=C(CS(=O)(=O)c2c(C)cc(C)cc2C)NC(=O)NC1c1cccc(OC)c1 (stereo not given),"inconclusive [inhibitor, partial curve]",–
COc1ccccc1N1CCN(C(CNC(=O)C(=O)NCCCN(C)C)c2cccnc2)CC1 (stereo not given),inactive,–
Cc1nc(C)c(C(=O)N/N=C/c2c[nH]c3ccccc23)s1,"inconclusive [inhibitor, single point]",–
COc1ccc(N(CC(=O)NCCc2cccc(C)c2)S(=O)(=O)c2c(C)nn(C)c2C)cc1,"inconclusive [inhibitor, single point]",–
C/C(CC(=O)Nc1ccc(Cl)c(Cl)c1)=N\NC(=O)Cc1ccccc1,"inconclusive [inhibitor, single point]",–
Cc1ccc(NC(=O)COC(=O)/C=C/c2ccccc2)cc1S(=O)(=O)N1CCOCC1,inactive,–
CC1CCc2cc(F)ccc2N1S(=O)(=O)c1ccc(Cl)nc1 (stereo not given),"inconclusive [inhibitor, single point]",–
O=C(c1ccc(F)cc1)C1CCN(C(=O)Nc2ccc(F)cc2F)CC1,"inconclusive [inhibitor, single point]",–
Cc1ccccc1OCc1nnc(SCc2cc(=O)c3ccccc3[nH]2)n1C,active: 14.6 µM,–
CCN(CC)S(=O)(=O)c1cc(NC(=O)C2CSC3(C)CCC(=O)N23)ccc1C (stereo not given),inactive,–
CC(C)C[C@H]1CN([C@@H](Cc2ccc(O)cc2)CN2CCC[C@H]2CN2C(=O)C(=O)NC[C@@H]2Cc2ccccc2)C(=O)C(=O)N1CC1CCCCCC1,"inconclusive [inhibitor, single point]",–
COc1ccc(C)cc1NC(=O)CSc1nc2ccccc2nc1N1CCCCC1,"inconclusive [inhibitor, single point]",–
O=C(CCc1nc(-c2ccccc2Cl)no1)NCCc1ccccc1,inactive,–
Cc1ccc(NS(=O)(=O)c2cc(OCC(N)=O)c(C)cc2Cl)cc1C,"inconclusive [inhibitor, single point]",–
CCOC(=O)C1=C[C@@H](c2ccccc2)N(S(=O)(=O)c2ccc(C)cc2)[C@H]1c1ccc(OC)cc1,"inconclusive [inhibitor, single point]",–
Cc1cccc(NC(=O)CCNS(=O)(=O)c2ccc(Cl)cc2)c1,"inconclusive [inhibitor, single point]",–
Cc1ccc(CN(Cc2ccccn2)C(=O)Nc2c(F)cccc2F)cc1,inactive,–
COc1nc(N(C)S(=O)(=O)c2ccc(C)cc2)nc(C)c1Br,"inconclusive [inhibitor, single point]",–
CCCCCCSc1cc(-c2nc3cc(C)ccn3c2NC2CCCCC2)ccc1OC,active: 16.4 µM,–
O=C(c1noc2c1CCCC2)N1CCCC(N2CCN(c3ccccc3F)CC2)C1 (stereo not given),"inconclusive [inhibitor, partial curve]",–
CC(=O)c1cccc(-c2ccnc3c2CC(C(=O)NCCC(F)(F)F)O3)c1 (stereo not given),"inconclusive [inhibitor, single point]",–
CC(C)(C)OC(=O)NCCc1nnc(S(=O)(=O)Cc2ccc(Cl)cc2Cl)o1,active: 2.59 µM,–
COc1ccccc1OCC(=O)N1CCCC(Nc2ccc(F)c(F)c2)C1 (stereo not given),inactive,–

Structure (SMILES),Potency,"activity change, negative = growth inhibition"
O=C1Nc2c(Br)cc(Br)cc2C1(O)N1CCOCC1 (stereo not given),active: 3.66 µM,–
Cc1nc(=O)c(-c2ccccc2)c(C)n1-c1ccc(Br)cc1,–,inconclusive: -34% [inhibitor]
CCNc1ncc2nc(-c3cc(F)cc(F)c3)c(=O)n(CCOC)c2n1,inactive,–
COC(=O)c1cccc(Nc2c(-c3ccc(O)c(OC)c3)nc3nc[nH]n23)c1,"inconclusive [inhibitor, single point]",–
CN(C)CCCN(C(=O)CCS(=O)(=O)c1ccccc1)c1nc2cc3c(cc2s1)OCO3,active: 1.46 µM,–
CCC1Nc2ncnc(N3CCN(c4ccccc4)CC3)c2N(Cc2ccc(Br)cc2)C1=O (stereo not given),"inconclusive [inhibitor, single point]",–
COc1ccc(NS(=O)(=O)c2ccc(C)c(C(=O)N3CCCCCCC3)c2)cc1,"inconclusive [inhibitor, single point]",–
Cc1ccc(NC(=O)CSc2nccn(-c3ccc4c(c3)OCCO4)c2=O)cc1,active: 18.4 µM,–
CCc1nc(SCC(=O)Nc2ccccc2OC)c2c(C)c(C)sc2n1,active: 20.6 µM,–
CC1(C)CC(C#N)(N2CCOCC2)CCO1 (stereo not given),"inconclusive [inhibitor, single point]",–
Oc1ccc(N2CCN(CC(O)c3ccccc3)CC2)cc1 (stereo not given),"inconclusive [inhibitor, single point]",–
CCOC(=O)N1CCN(C(=O)C[C@@H]2C[C@@]3(C(=O)OC)CC(C)(C)CC=C3N(Cc3ccc4c(c3)OCO4)C2=O)CC1,active: 18.4 µM,–
CCN(c1ccccc1)S(=O)(=O)c1ccc(OC)c(NC(=O)COc2ccc(C(C)=O)cc2)c1,"inconclusive [inhibitor, partial curve]",–
O=C(NC1=NCCS1)c1sc2cc(Cl)cc(Cl)c2c1Cl,"inconclusive [inhibitor, single point]",–
CCOC(=O)c1cnc(SC2CCc3ccccc3C2=O)nc1N (stereo not given),inactive,–
O=C1CSc2nc3ccccc3n21,inactive,–
CSc1cccc(NC(=O)CCNC(=O)c2ccco2)c1,inactive,–
CCOC(=O)c1c(NC(=O)C2=C(C)NC(=S)NC2c2ccc(F)cc2F)sc(C)c1C (stereo not given),"inconclusive [inhibitor, single point]",–
COc1ccc2c(c1)CCc1c(C(=O)Nc3cc(C)ccc3O)noc1-2,"inconclusive [inhibitor, partial curve]",–
C[C@H](O)[C@@H]1CN2CCc3c([nH]c4ccccc34)[C@@H]2C[C@@H]1N(C)Cc1cc(Cl)cc(Cl)c1,active: 23.1 µM,–
O=c1c(-c2n[nH]c(=S)n2-c2ccccc2)cccn1Cc1cccc(Cl)c1,inactive,–
Cn1c(N)c(C(=O)COC(=O)/C=C/c2ccccc2)c(=O)n(C)c1=O,–,inconclusive: -31.1% [inhibitor]
